Patent US6500842B1, “8-hydroxy-7-substituted quinolines as anti-viral agents” (Pharmacia & Upjohn Company, priority 1996, dated 2002)
Values joined by “and” are separate entries in the source; they are usually repeats but may differ in a detail not shown here. Equal values may be shown once. The name of at least one read-out is uncertain.

Target: T1, HCMV polymerase (Human cytomegalovirus, UniProt P08546)
T1 construct: made in house; host or cells: recombinant baculovirus-infected SF-9 cells
Experiment: HCMV polymerase assay (scintillation proximity assay)
Format: biochemical
Details: for CMV pol Assay % Inhib: Table 1
Method in brief: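 Baculovirus/SF-9-expressed purified enzyme in HEPES pH 7.5, KCl, 4.5 mM MgCl2, BSA, with 90 nM ³H-dTTP, ± 2 mM CHAPS; started with 6 nM biotinylated poly(dA)-oligo(dT), 30 min, stopped with EDTA. Incorporation read by streptavidin SPA beads; IC50 by linear regression.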

[1] = Table 5, Conc 1.00e-004 M, pol type CMV
[2] = Table 5, Conc 1.00e-005 M, pol type CMV
[3] = Table 5, Conc 1.25e-006 M, pol type CMV
[4] = Table 5, Conc 1.30e-005 M, pol type CMV
[5] = Table 5, Conc 2.50e-005 M, pol type CMV
[6] = Table 5, Conc 2.50e-006 M, pol type CMV
[7] = Table 5, Conc 3.13e-006 M, pol type CMV
[8] = Table 5, Conc 3.13e-007 M, pol type CMV
[9] = Table 5, Conc 5.00e-005 M, pol type CMV
[10] = Table 5, Conc 5.00e-006 M, pol type CMV
[11] = Table 5, Conc 6.25e-006 M, pol type CMV
[12] = Table 5, Conc 6.25e-007 M, pol type CMV
[13] = Table 10, Conc 2.50e-005 M, pol type CMV
[14] = Table 10, Conc 1.30e-005 M, pol type CMV
[15] = Table 10, Conc 1.56e-006 M, pol type CMV
[16] = Table 10, Conc 3.13e-006 M, pol type CMV
[17] = Table 10, Conc 5.00e-005 M, pol type CMV
[18] = Table 10, Conc 6.25e-006 M, pol type CMV
[19] = Table 10, Conc 1.00e-004 M, pol type CMV

T1 sequence (P08546 whole entry): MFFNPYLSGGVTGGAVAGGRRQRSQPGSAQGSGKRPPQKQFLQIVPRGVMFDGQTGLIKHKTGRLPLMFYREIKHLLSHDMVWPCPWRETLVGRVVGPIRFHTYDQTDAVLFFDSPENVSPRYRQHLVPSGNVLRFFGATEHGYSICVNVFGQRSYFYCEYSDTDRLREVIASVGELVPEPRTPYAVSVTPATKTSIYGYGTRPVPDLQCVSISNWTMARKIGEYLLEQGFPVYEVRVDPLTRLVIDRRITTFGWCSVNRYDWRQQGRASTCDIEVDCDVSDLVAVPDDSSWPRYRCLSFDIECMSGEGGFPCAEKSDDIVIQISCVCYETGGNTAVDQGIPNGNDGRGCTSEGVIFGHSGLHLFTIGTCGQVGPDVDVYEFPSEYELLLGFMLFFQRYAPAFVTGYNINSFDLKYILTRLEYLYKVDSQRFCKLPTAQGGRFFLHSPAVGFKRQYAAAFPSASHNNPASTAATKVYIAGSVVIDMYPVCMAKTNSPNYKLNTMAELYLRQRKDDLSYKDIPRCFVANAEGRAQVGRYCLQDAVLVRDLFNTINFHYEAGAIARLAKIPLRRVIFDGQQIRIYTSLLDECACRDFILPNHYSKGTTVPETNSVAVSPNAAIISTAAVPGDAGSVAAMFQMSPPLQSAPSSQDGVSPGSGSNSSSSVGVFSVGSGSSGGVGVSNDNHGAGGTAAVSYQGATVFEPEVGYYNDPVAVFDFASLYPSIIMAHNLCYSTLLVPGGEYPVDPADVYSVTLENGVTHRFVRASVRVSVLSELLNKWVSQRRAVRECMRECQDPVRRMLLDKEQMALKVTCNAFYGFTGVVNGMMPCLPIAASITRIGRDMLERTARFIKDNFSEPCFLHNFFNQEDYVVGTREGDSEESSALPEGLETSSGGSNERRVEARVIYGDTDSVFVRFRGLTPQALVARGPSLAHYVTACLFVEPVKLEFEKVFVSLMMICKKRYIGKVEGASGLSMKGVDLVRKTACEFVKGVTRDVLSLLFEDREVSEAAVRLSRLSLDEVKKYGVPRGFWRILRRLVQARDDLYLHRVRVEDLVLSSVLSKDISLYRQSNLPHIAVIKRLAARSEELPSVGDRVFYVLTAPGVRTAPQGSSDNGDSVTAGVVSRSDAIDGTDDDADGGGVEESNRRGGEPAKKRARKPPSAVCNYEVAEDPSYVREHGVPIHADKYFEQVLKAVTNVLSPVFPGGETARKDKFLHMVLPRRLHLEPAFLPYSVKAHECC

## CCCCCCCNC(=O)c1ccc2ccc(/C=C/c3ccc(OC)cc3)nc2c1O [Example 48, N-Heptyl-8-hydroxy-2-[2-(4-methoxyphenyl)ethenyl]-7-quinolinecarboxamide]
[1]
  % Inhib: 97.8%
[2]
  % Inhib: 95.6%
[3]
  % Inhib: 77.2%
[4]
  % Inhib: 97.5%
[5]
  % Inhib: 97.8%
[6]
  % Inhib: 87.2%
[7]
  % Inhib: 97.2%
[8]
  % Inhib: 32.6%
[9]
  % Inhib: 98.8%
[10]
  % Inhib: 91.8%
[11]
  % Inhib: 96.8%
[12]
  % Inhib: 61.3%

## O=C(Nc1cc([N+](=O)[O-])ccc1O)c1ccc2cccnc2c1O
[13]
  % Inhib: 91.5%

## O=C(Nc1cccc2ncccc12)c1ccc2cccnc2c1O
[13]
  % Inhib: 22.3%

## COc1ccc(/C=C/c2ccc3ccc(C(=O)NCCSc4ccccc4)c(O)c3n2)cc1 [Example 54, 8-Hydroxy-2-[2-(4-methoxyphenyl)ethenyl]-N-[2-(phenylthio)-ethyl]-7-quinolinecarboxamide]
[1]
  % Inhib: 95.3%
[2]
  % Inhib: 98.7%
[3]
  % Inhib: 89.6%
[4]
  % Inhib: 95.1%
[5]
  % Inhib: 95.6%
[6]
  % Inhib: 94.2%
[7]
  % Inhib: 88.7%
[8]
  % Inhib: 45.9%
[9]
  % Inhib: 95.6%
[10]
  % Inhib: 97.3%
[11]
  % Inhib: 94.4%
[12]
  % Inhib: 77.8%

## N#Cc1ccc(NC(=O)c2ccc3cccnc3c2O)c(Cl)c1
[13]
  % Inhib: 23%

## Cc1ccc2c(Cl)cc(S(=O)(=O)Nc3ccc(Cl)cc3)c(O)c2n1 [Example 28, 5-Chloro-N-(4-chlorophenyl)-8-hydroxy-2-methyl-7-quinoline-sulfonamide]
Conc 1.00e−004 M, Table 2
  % Inhib: 96.4%
Conc 1.30e−005 M, Table 2
  % Inhib: 78.3%
Conc 2.50e−005 M, Table 2
  % Inhib: 93%
Conc 3.13e−006 M, Table 2
  % Inhib: 28.1%
Conc 5.00e−005 M, Table 2
  % Inhib: 94.6%
Conc 6.25e−006 M, Table 2
  % Inhib: 52%

## O=C(Nc1cc(F)c(F)cc1F)c1ccc2cccnc2c1O
[14]
  % Inhib: 13.4%
[15]
  % Inhib: 5.3%
[13]
  % Inhib: 61.4% and 31.2%
[16]
  % Inhib: 8.3%
[17]
  % Inhib: 98.4%
[18]
  % Inhib: 7.9%

## Cc1cccc(NC(=O)c2ccc3cccnc3c2O)c1C
[14]
  % Inhib: 54.6%
[15]
  % Inhib: 28.8%
[13]
  % Inhib: 96.9% and 94.7%
[16]
  % Inhib: 27.3%
[17]
  % Inhib: 99.4%
[18]
  % Inhib: 31.9%

## O=C(Nc1ccc(F)c(F)c1F)c1ccc2cccnc2c1O
[13]
  % Inhib: 25%

## CCCCCCCNC(=O)c1ccc2ccc(C(F)(F)F)nc2c1O [Example 56, N-Heptyl-8-hydroxy-2-(trifluoromethyl)-7-quinolinecarboxamide]
[1]
  % Inhib: 81.8%
[4]
  % Inhib: 36.8%
[5]
  % Inhib: 48.4%
[7]
  % Inhib: 27.9%
[9]
  % Inhib: 59.8%
[11]
  % Inhib: 30%

## O=C(Nc1nnc(Cc2ccc(Cl)cc2)s1)c1ccc2cccnc2c1O [Example 2, N-[5-[(4-Chlorophenyl)methyl]-1,3,4-thiadiazol-2-yl]-8-hydroxy-7-quinolinecarboxamide]
Conc 1.00E−04 M
  CMV pol Assay % Inhib: 83%
Conc 1.30E−05 M
  CMV pol Assay % Inhib: 65.7%
Conc 2.50E−05 M
  CMV pol Assay % Inhib: 78%
Conc 3.13E−06 M
  CMV pol Assay % Inhib: 43.6%
Conc 5.00E−05 M
  CMV pol Assay % Inhib: 81.9%
Conc 6.25E−06 M
  CMV pol Assay % Inhib: 59.2%

## O=C(Nc1ccc(Oc2ccc([N+](=O)[O-])cc2)cc1)c1ccc2cccnc2c1O
[19]
  % Inhib: 71.8%
[14]
  % Inhib: 82.9%
[16]
  % Inhib: 31.3%
[17]
  % Inhib: 77.3%
[18]
  % Inhib: 65.7%

## O=C(Nc1ccc(Br)cc1)c1ccc2cccnc2c1O
[19]
  % Inhib: 99.7%
[14]
  % Inhib: 14.4%
[16]
  % Inhib: 10.7%
[17]
  % Inhib: 85.3%
[18]
  % Inhib: 16%

## Cc1ccc(F)cc1NC(=O)c1ccc2cccnc2c1O [drawing 282]
[14]
  % Inhib: 89.6%
[15]
  % Inhib: 7.4%
[13]
  % Inhib: 73.5% and 100.3%
[16]
  % Inhib: 23.7%
[17]
  % Inhib: 100.7%
[18]
  % Inhib: 36.9%

## O=C(NC1=NC(=O)C(c2ccc(Cl)cc2)S1)c1cc(Br)c2cccnc2c1O (centres unmarked) [Example 6, 5-Bromo-N-[5-(4-chlorophenyl)-4,5-dihydro-4-oxo-2-thiazolyl]-8-hydroxy-7-quinolinecarboxamide]
Conc 1.00E−04 M
  CMV pol Assay % Inhib: 99.6%
Conc 1.30E−05 M
  CMV pol Assay % Inhib: 81.1%
Conc 2.50E−05 M
  CMV pol Assay % Inhib: 95.1%
Conc 3.13E−06 M
  CMV pol Assay % Inhib: 39.6%
Conc 5.00E−05 M
  CMV pol Assay % Inhib: 98.6%
Conc 6.25E−06 M
  CMV pol Assay % Inhib: 59%

## O=C(NCc1ccc(Cl)cc1)c1cc(Br)c2cccnc2c1O [Example 9, 5-Bromo-N-[(4-chlorophenyl)methyl]-8-hydroxy-7-quinolinecarboxamide]
Conc 1.00E−04 M
  CMV pol Assay % Inhib: 98.8%
Conc 1.30E−05 M
  CMV pol Assay % Inhib: 93.3%
Conc 2.50E−05 M
  CMV pol Assay % Inhib: 96.3%
Conc 3.13E−06 M
  CMV pol Assay % Inhib: 45.6%
Conc 5.00E−05 M
  CMV pol Assay % Inhib: 99.2%
Conc 6.25E−06 M
  CMV pol Assay % Inhib: 80.3%
